{"source": "a collection of fitness landscapes (doi:10.1126/science.1257360)", "parents": {"B1": {"name": "PhoQ; a variant is named by its letters at X, in order, P23837 (parent)", "chain": "MKKLLRLFFPLSLRVRFLLATAAVVLVLSLAYGMVALIGYSVSFDKTTFRLLRGESNLFYTLAKWENNKLHVELPENIDKQSPTMTLIYDENGQLLWAQRDVPWLMKMIQPDWLKSNGFHEIEADVNDTSLLLSGDHSIQQQLQEVREDDDDAEMTHSVAVNVYPATSRMPKLTIVVVDTIPVELKSSYMVWSWFIYVLSANLLLVIPLLWVAAWWSLRPIEALAKEVRELEEHNRELLNPATTRELTSLVRNLNRLLKSERERYDKYRTTLTDLTHSLKTPLXXLQXXLRSLRSEKMSVSDAEPVMLEQISRISQQIGYYLHRASMRGGTLLSRELHPVAPLLDNLTSALNKVYQRKGVNISLDISPEISFVGEQNDFVEVMGNVLDNACKYCLEFVEISARQTDEHLYIVVEDDGPGIPLSKREVIFDRGQRVDTLRPGQGVGLAVAREITEQYEGKIVAGESMLGGARMEVIFGRQHSAPKDE"}}, "note": "Some of the results follow."}
{"variants_of": "B1", "test": "enrichment ratio after two sorts for PhoP signalling (ratio (wild type AVST 3.29)); higher = more functional", "settings": "with PhoP (E. coli)"}
{"variant": "INTD", "enrichment ratio": "≤ 0.25"}
{"variant": "RSES", "enrichment ratio": "≤ 0.25"}
{"variant": "SKWW", "enrichment ratio": "≤ 0.25"}
{"variant": "DPML", "enrichment ratio": "≤ 0.25"}
{"variant": "VRQR", "enrichment ratio": "≤ 0.25"}
{"variant": "HMNS", "enrichment ratio": "≤ 0.25"}
{"variant": "SCHW", "enrichment ratio": "≤ 0.25"}
{"variant": "NSWM", "enrichment ratio": "≤ 0.25"}
{"variant": "IDNG", "enrichment ratio": "≤ 0.25"}
{"variant": "PFFQ", "enrichment ratio": "≤ 0.25"}
{"variant": "KPPA", "enrichment ratio": "≤ 0.25"}
{"variant": "LVMA", "enrichment ratio": "≤ 0.25"}
{"variant": "QETE", "enrichment ratio": "≤ 0.25"}
{"variant": "IWVF", "enrichment ratio": "≤ 0.25"}
{"variant": "KNPM", "enrichment ratio": "≤ 0.25"}
{"variant": "KHYD", "enrichment ratio": "≤ 0.25"}
{"variant": "KDFQ", "enrichment ratio": "≤ 0.25"}
{"variant": "NWYS", "enrichment ratio": "≤ 0.25"}
{"variant": "MCWG", "enrichment ratio": 4.16}
{"variant": "MPCW", "enrichment ratio": "≤ 0.25"}
{"variant": "SSPR", "enrichment ratio": "≤ 0.25"}
{"variant": "MPIN", "enrichment ratio": "≤ 0.25"}
{"variant": "LHCK", "enrichment ratio": "≤ 0.25"}
{"variant": "PYPP", "enrichment ratio": "≤ 0.25"}
{"variant": "LSNG", "enrichment ratio": "≤ 0.25"}
{"variant": "IYRG", "enrichment ratio": "≤ 0.25"}
{"variant": "YEIM", "enrichment ratio": 4.3}
{"variant": "IKRD", "enrichment ratio": "≤ 0.25"}
{"variant": "EAYH", "enrichment ratio": "≤ 0.25"}
{"variant": "FKQH", "enrichment ratio": "≤ 0.25"}
{"variant": "SVEF", "enrichment ratio": "≤ 0.25"}
{"variant": "ATRF", "enrichment ratio": "≤ 0.25"}
{"variant": "DECS", "enrichment ratio": "≤ 0.25"}
{"variant": "WSWM", "enrichment ratio": "≤ 0.25"}
{"variant": "TMRH", "enrichment ratio": "≤ 0.25"}
{"variant": "DMFL", "enrichment ratio": "≤ 0.25"}
{"variant": "FNHA", "enrichment ratio": "≤ 0.25"}
{"variant": "QSSD", "enrichment ratio": "≤ 0.25"}
{"variant": "TCWA", "enrichment ratio": 0.276}
{"variant": "NVTR", "enrichment ratio": "≤ 0.25"}
{"variant": "YGIS", "enrichment ratio": "≤ 0.25"}
{"variant": "SHCE", "enrichment ratio": 5.47}
{"variant": "YDNM", "enrichment ratio": "≤ 0.25"}
{"variant": "KLNG", "enrichment ratio": "≤ 0.25"}
{"variant": "SVHP", "enrichment ratio": "≤ 0.25"}
{"variant": "FIFI", "enrichment ratio": "≤ 0.25"}
{"variant": "QNYV", "enrichment ratio": "≤ 0.25"}
{"variant": "SWNM", "enrichment ratio": "≤ 0.25"}
{"variant": "IQKS", "enrichment ratio": "≤ 0.25"}
{"variant": "WIWQ", "enrichment ratio": "≤ 0.25"}
{"variant": "QQAF", "enrichment ratio": "≤ 0.25"}
{"variant": "FECR", "enrichment ratio": "≤ 0.25"}
{"variant": "MSDK", "enrichment ratio": "≤ 0.25"}
{"variant": "PQQH", "enrichment ratio": "≤ 0.25"}
{"variant": "QIDE", "enrichment ratio": "≤ 0.25"}
{"variant": "SYHA", "enrichment ratio": "≤ 0.25"}
{"variant": "KRPH", "enrichment ratio": "≤ 0.25"}
{"variant": "DFNW", "enrichment ratio": "≤ 0.25"}
{"variant": "IMCA", "enrichment ratio": "≤ 0.25"}
{"variant": "SFAF", "enrichment ratio": "≤ 0.25"}
{"variant": "DAEN", "enrichment ratio": "≤ 0.25"}
{"variant": "NRKK", "enrichment ratio": "≤ 0.25"}
{"variant": "GRRA", "enrichment ratio": "≤ 0.25"}
{"variant": "TPDK", "enrichment ratio": "≤ 0.25"}
{"variant": "LNFY", "enrichment ratio": "≤ 0.25"}
{"variant": "QNMF", "enrichment ratio": "≤ 0.25"}
{"variant": "QPWF", "enrichment ratio": "≤ 0.25"}
{"variant": "NMMK", "enrichment ratio": "≤ 0.25"}
{"variant": "YGDV", "enrichment ratio": "≤ 0.25"}
{"variant": "PEMR", "enrichment ratio": "≤ 0.25"}
{"variant": "QIDM", "enrichment ratio": "≤ 0.25"}
{"variant": "FFWP", "enrichment ratio": "≤ 0.25"}
{"variant": "NLRR", "enrichment ratio": "≤ 0.25"}
{"variant": "MWND", "enrichment ratio": "≤ 0.25"}
{"variant": "SWFW", "enrichment ratio": "≤ 0.25"}
{"variant": "VTVF", "enrichment ratio": "≤ 0.25"}
{"variant": "CPFF", "enrichment ratio": "≤ 0.25"}
{"variant": "RPKH", "enrichment ratio": "≤ 0.25"}
{"variant": "HGMW", "enrichment ratio": "≤ 0.25"}
{"variant": "HDPA", "enrichment ratio": "≤ 0.25"}
{"variant": "MTGS", "enrichment ratio": 2.94}
{"variant": "WWVH", "enrichment ratio": "≤ 0.25"}
{"variant": "MWPY", "enrichment ratio": "≤ 0.25"}
{"variant": "YYDS", "enrichment ratio": "≤ 0.25"}
{"variant": "DHYM", "enrichment ratio": "≤ 0.25"}
{"variant": "VGKL", "enrichment ratio": "≤ 0.25"}
{"variant": "INRP", "enrichment ratio": "≤ 0.25"}
{"variant": "DTVM", "enrichment ratio": "≤ 0.25"}
{"variant": "NTSL", "enrichment ratio": "≤ 0.25"}
{"variant": "TYHA", "enrichment ratio": "≤ 0.25"}
{"variant": "PRHV", "enrichment ratio": "≤ 0.25"}
{"variant": "ELKV", "enrichment ratio": "≤ 0.25"}
{"variant": "IRSH", "enrichment ratio": "≤ 0.25"}
{"variant": "NHRC", "enrichment ratio": "≤ 0.25"}
{"variant": "HFQL", "enrichment ratio": "≤ 0.25"}
{"variant": "VVGN", "enrichment ratio": "≤ 0.25"}
{"variant": "GVEP", "enrichment ratio": "≤ 0.25"}
